# Data published in PubChem BioAssay AID1508642 (National Center for Advancing Translational Sciences (NCATS), 2021).
# The whole screen tested about 43,000 compounds, of which about 200 (0.47%) were called active. Inconclusive results (about 12%) are left out. Calls follow the shape of the dose curve; as a rule, active = well fitted cell-killing curve with a large enough effect; inconclusive = small, poorly fitted or top-dose-only effect, or effect the other way; inactive = flat fitted curve, though single readings scatter. The list shows a part of the results.
# Test: Cell viability qHTS assay in S16 Pmp22-F2sN cells; also: nearly all actives have a fitted effect of over 65% in size
# Settings: S16 Pmp22-F2sN Schwann cells (luciferase reporters placed in the Pmp22 gene) viability, CellTiter-Glo, 24 h; series mostly up to 57.5 µM; activity change, negative = cytotoxicity: at the top concentration
# Outline: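 Rat S16 Schwann reporter line, 24 h treatment with library compounds delivered at 23 nL per well. Cell viability by CellTiter-Glo luminescence.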
# % is scaled to controls: 0 for no effect and ±100 for the full control effect.
row,Structure (SMILES),"activity change, negative = cytotoxicity"
1,CC(=O)c1cccc(Nc2c3c(nc4nc(-c5cccs5)nn24)CCCC3)c1,inactive: -17.1%
2,COc1cc(C(c2c(C)[nH][nH]c2=O)c2c(C)[nH][nH]c2=O)ccc1OC(=O)c1ccccc1F,inactive: -2.19%
3,Cc1ccc(CNC(=O)C2CCN(c3nc4ccc(C)cc4[nH]3)CC2)cc1,inactive: 4.87%
4,CC(=O)Nc1ccc(NC(=O)CSc2nnc3c4cc(Br)ccc4n(C)c3n2)cc1,inactive: 4.09%
5,CCCC(=O)Nc1cccc(-c2nc3cc(C)c(C)cc3o2)c1C,inactive: 12.6%
6,COC(=O)c1ccc2oc(=O)c(S(=O)(=O)c3ccc(C)cc3)cc2c1,inactive: 0.0607%
7,O=C(COc1ccc(F)cc1)Nc1cccc(OCc2cc(=O)n3ccccc3n2)c1,inactive: -0.946%
8,Cc1ccc(-n2nc(C)c3c(C)cc(=O)n(CC(=O)NCc4ccc(OC(C)C)cc4)c32)cc1,inactive: -5.03%
9,COc1ccc(Nc2ncc(C(=O)Nc3cc(C)ccc3OC)c3ccccc23)cc1,inactive: 17.3%
10,FC(F)(F)c1ccc(C2=Nc3ccccc3NC(c3cccs3)=N2)cc1,inactive: -2.26%
11,Cc1ccc(NC(=O)c2ccc(=O)n(CC(=O)Nc3cc(C)cc(C)c3)n2)cc1,inactive: -0.889%
12,Fc1ccc(-n2ncc3c(Nc4ccc(Oc5ccccc5)cc4)ncnc32)cc1,inactive: 5.67%
13,Cc1ccc(OCC(=O)Nc2c(Cl)ccc3nsnc23)cc1C,inactive: -0.14%
14,Cc1ccc2c(c1)c1c(c(=O)n(-c3ccccc3C)c(=O)n1Cc1ccccc1F)n2C,inactive: 20.1%
15,COc1ccc(NC(=O)CCc2c(C)nc3c(-c4ccccc4)c(C)nn3c2C)cc1Cl,inactive: 5.2%
16,Cn1c(C(=O)NCc2ccc(Cl)cc2)cc2c(=O)n(C)c3ccccc3c21,inactive: -0.954%
17,Cc1ccc(Cl)cc1NC(=O)Cn1c(=O)oc2cc(S(=O)(=O)N3CCCCCC3)ccc21,inactive: 5.34%
18,CCCc1cc(=O)[nH]c(SCc2nc(-c3ccc(OC)cc3)no2)n1,inactive: -0.774%
19,Cc1cc(C)cc(OCC(=O)NCC2(N3CCOCC3)CCCCC2)c1,inactive: -26.6%
20,O=C(Cn1c(SCCOc2ccccc2Cl)nc2ccccc21)N1CCCCC1,inactive: 1.05%
21,O=C(C1CCN(c2ncnc3c2nc2n3CCCCC2)CC1)N1CCN(c2ccccc2)CC1,inactive: -25.7%
22,CCOC(=O)c1ccccc1NC(=O)c1sc2ncn(CC)c(=O)c2c1C,inactive: 1.62%
23,COc1ccc(CC(=O)NCCc2csc(-c3cccc(F)c3)n2)cc1OC,inactive: -0.227%
24,N#Cc1ccccc1Cn1c(=O)n(-c2ccc(F)c(Cl)c2)c(=O)c2sccc21,inactive: 8.6%
25,Cc1nc(-c2ccc(F)cc2)sc1CCNC(=O)C(=O)Nc1ccc2c(c1)OCO2,inactive: 11%

row,Structure (SMILES),"activity change, negative = cytotoxicity"
1,CCOC(=O)c1cccc(NC(=O)NCc2ccc3c(c2)CCN3C(=O)CC)c1,inactive: -0.21%
2,CCCn1c2ccccc2c2cnn(CC(=O)NCCc3cc(OC)ccc3OC)c(=O)c21,inactive: 4.15%
3,Cc1ccc(CSc2ncccc2C(=O)O)cc1,inactive: -0.155%
4,COc1cccc(-c2nc(CS(=O)(=O)CC(=O)NCCCc3ccccc3)c(C)o2)c1,inactive: 2.78%
5,Cc1ccc(S(=O)(=O)N2CCCc3cc(NC(=O)c4ccc(C(C)(C)C)cc4)ccc32)cc1,inactive: -7.4%
6,CCc1ccc(C(=O)c2cn(CC(=O)Nc3ccc(OC)c(Cl)c3)c3nc(C)ccc3c2=O)cc1,inactive: -11.7%
7,CCCN(C(=O)NCc1noc2ccc(C)cc12)c1ccc(Cl)c(Cl)c1,inactive: 7.44%
8,CC1=C(C(=O)Nc2cccc(C(F)(F)F)c2)C(c2ccccn2)n2ncnc2N1 (configuration not stated),inactive: 13.9%
9,CCC(=O)Nc1ccccc1-c1nc2ccccc2n(CC(=O)c2ccc(Br)cc2)c1=O,inactive: 12.7%
10,Cc1ccc(Cl)cc1NC(=O)Cn1cc(S(=O)(=O)Cc2ccccc2Cl)c2ccccc21,inactive: -10.3%
11,COc1ccc(N2CCN(C(=O)c3nn(C)c4c3CSc3ccccc3-4)CC2)cc1,inactive: 11.5%
12,Fc1cccc(CSc2nc(NCCc3ccccc3)c3ccccc3n2)c1,inactive: -8.29%
13,COc1ccccc1OCC(=O)Nc1cc(-c2ccc(C)cc2)no1,inactive: -0.368%
14,CC1CCN(S(=O)(=O)c2ccc3nc(N4CCN(c5ccccc5)CC4)ccc3c2)CC1,inactive: 13.6%
15,Oc1c(C(c2ccc(Cl)cc2)N2CCOCC2)sc2nc(-c3ccco3)nn12 (configuration not stated),inactive: 0.392%
16,COc1cc(NS(=O)(=O)c2cccs2)cc(OC)c1,inactive: -0.536%
17,CC(=O)c1cc(-c2ccc(F)cc2)n(CC(=O)NCc2ccc(C)cc2)c1C,inactive: 1.09%
18,CCc1ccc(-c2ccc3nnc(SCC(=O)Nc4cccc(C(C)=O)c4)n3n2)cc1,inactive: -23%
19,COc1cc(Cl)c(C)cc1NC(=O)NC1COc2ccccc2C1 (configuration not stated),inactive: -2.63%
20,CCCNC(=O)Cn1c(=O)cc(C)c2c(C)nn(-c3cccc(F)c3)c21,inactive: 11.5%
21,Cc1cccc(Oc2nc3c(c(=O)n(C)c(=O)n3C)n2C)c1C,inactive: -1.3%
22,CCOC(=O)N1CCN(C(=O)c2cnn(-c3cccc(F)c3)c2-n2cccc2)CC1,inactive: 1.18%
23,CCc1ccccc1NC(=O)C(CCSC)NS(=O)(=O)c1ccc2c(c1)oc(=O)n2C (configuration not stated),inactive: 5.89%
24,N#Cc1c(-c2ccccc2)cc(-c2ccccc2)nc1SCC(=O)Nc1ccc(Cl)cc1,inactive: 8.52%
25,Cc1ccccc1-c1nn2c(=O)cc(CN3CCN(C(=O)c4ccccc4Br)CC3)nc2s1,inactive: -12.7%

row,Structure (SMILES),"activity change, negative = cytotoxicity"
1,COc1ccc(NC(=O)c2oc3ccccc3c2NC(=O)c2cc(OC)c(OC)c(OC)c2)cc1,inactive: 7.03%
2,COc1ccc(CCNC(=O)CN2C(=O)COc3ccccc32)cc1OC,inactive: -3.91%
3,COc1cccc(CNC(=O)c2ccc(CS(=O)c3ccccc3)o2)c1 (configuration not stated),inactive: 9.71%
4,CCC(C)n1c(=N)c(S(=O)(=O)c2ccccc2)cc2c(=O)n3ccccc3nc21 (configuration not stated),inactive: 2.9%
5,Cc1nn(C)c2c1c(-c1ccccc1)cc(=O)n2CC(=O)NC(C)(C)C,inactive: -19.2%
6,CCOC(=O)c1ccccc1NC(=O)CSc1ncc2c(n1)-c1ccccc1N(CC)S2(=O)=O,inactive: 7.57%
7,CCOc1ccc(S(=O)(=O)N(CC(=O)NCCSCc2ccccc2)c2ccccc2)cc1,inactive: 6.02%
8,CCOc1ccccc1NC(=O)N1CCN(Cc2cc(=O)n3nc(-c4ccc(C)cc4)sc3n2)CC1,inactive: -1.14%
9,COc1cc2nc(SCc3ccc(F)cc3)n3nc(CCn4c(C)nc5ccccc54)nc3c2cc1OC,inactive: -6.47%
10,O=C(c1ccc(CS(=O)c2ccccc2Cl)o1)N1CCN(c2ccccc2F)CC1 (configuration not stated),inactive: -11%
11,Cc1ccc(CN2CCC(CNC(=O)Nc3c(C)cccc3C)C2)cc1 (configuration not stated),inactive: 11%
12,COc1ccccc1-c1c(C)nn2c(C(F)(F)F)cc(-c3ccccc3)nc12,inactive: 18.5%
13,CSc1cccc(NC(=O)c2ccc3c(c2)c(C)c(C)n3Cc2ccc(F)cc2)c1,inactive: -16.4%
14,COc1ccc(CCCc2nnc(SCC(=O)Nc3ccc(C)c(C)c3)o2)cc1,inactive: 3.26%
15,CCc1ccc(S(=O)(=O)c2cn(C)c3cc(N4CCN(CC)CC4)c(F)cc3c2=O)cc1,inactive: 4.4%
16,Cc1cc(C)c2c(CC(=O)Nc3nnc(CC(C)C)s3)coc2c1,inactive: -3.77%
17,CC(C)NS(=O)(=O)c1ccc(OCC(=O)N2CCN(c3ccccc3F)CC2)cc1,inactive: 8.43%
18,CC(C)(C)c1ccc(OCC(=O)Nc2c(C(=O)c3ccc(F)cc3)oc3ccccc23)cc1,inactive: 16.2%
19,O=C(CCC1N=C2c3ccccc3N=C(SCc3cccc(Cl)c3)N2C1=O)NCc1cccs1 (configuration not stated),inactive: 7.36%
20,COc1cccc(C(=O)N(Cc2cccc(Cl)c2)Cc2ccco2)c1,inactive: 11.4%
21,COC(=O)c1c(NC(=O)CCCOc2ccccc2)sc2c1CCC(C)C2 (configuration not stated),inactive: -0.0607%
22,Cc1ccc(Cl)cc1NC(=O)C1CCCN(S(=O)(=O)c2c(C)noc2/C=C/N(C)C)C1 (configuration not stated),inactive: -16%
23,Cc1cc(Nc2cccc(Cl)c2)nc2ccc(NC(=O)c3ccc(F)cc3Cl)cc12,inactive: -7.02%
24,O=C(Nc1ccccc1C(=O)OCc1cc(=O)n2ccsc2n1)c1cccc(F)c1,inactive: -10.3%
25,Cc1ccc2nc(/C(C#N)=C/c3ccc(-c4ccc(F)cc4F)o3)[nH]c2c1,inactive: -2.07%

row,Structure (SMILES),"activity change, negative = cytotoxicity"
1,Fc1ccc(C2=NC(c3cccc(C(F)(F)F)c3)=Nc3ccccc3N2)cc1,inactive: -25.1%
2,CCC(=O)N1CCc2cc(S(=O)(=O)CCC(=O)N(C)c3ccc(OC)cc3)ccc21,inactive: 12.8%
3,CCOc1ccc(NC(=O)NCCCN2CCN(c3ccc(OC)cc3)CC2)cc1,inactive: -11%
4,O=C(c1ccc(CSc2nc3ccncc3n2Cc2ccccc2F)cc1)N1CCCCC1,inactive: -9.7%
5,CC(C)c1ccc(NC(=O)CNC(=O)Cn2ccc3ccccc3c2=O)cc1,inactive: 3.62%
6,O=C(NCc1ccc(F)cc1)c1cccc(N2CCCS2(=O)=O)c1,inactive: 23.4%
7,O=C(NCCc1ccccc1)c1cc(-c2ccccc2)nc2n[nH]c(-c3ccccc3)c12,inactive: -25.9%
8,Cc1ccc(-c2cc(C(=O)NCCc3ccccc3)c3ccccc3n2)cc1C,inactive: -29.6%
9,CN(C)c1ccc(/C=C(\C#N)c2nc3ccccc3c(=O)[nH]2)cc1,inactive: 7.14%
10,COc1ccc(NC(=O)c2oc3ccccc3c2NC(=O)Cc2coc3cc(C)ccc23)cc1,inactive: 2.49%
11,COc1ccc(C)cc1NC(=O)CCNC(=O)Cn1ccc2ccccc2c1=O,inactive: 6.8%
12,COCCCn1c(=N)c(C(=O)NCc2cccnc2)cc2c(=O)n3cccc(C)c3nc21,inactive: -1.21%
13,CCOC(=O)c1c(C)[nH]c(CCC(=O)NCc2cccc(C)c2)c1C,inactive: 7.24%
14,Cc1ccc(CNC(=O)CN2C(=O)CSc3c2c(C)nn3-c2ccccc2)cc1,inactive: 6.46%
15,Cn1c(-c2ccccc2)cnc1NCc1ccccc1O,inactive: 4.41%
16,O=C(NCc1ccccc1Br)c1ccc2c(c1)nc1n2CCOC1,inactive: 12.8%
17,O=C(CCC1N=C2c3ccccc3N=C(SCc3ccccc3F)N2C1=O)NCc1ccccc1 (configuration not stated),inactive: -29.2%
18,CCCNC(=O)COCc1cc(-c2ccc(F)cc2)on1,inactive: -0.902%
19,COc1ccc(C2=C(C)C(=NCCCN3CCN(c4cc(Cl)ccc4C)CC3)NS2(=O)=O)cc1,inactive: -15.5%
20,Cc1ccc(NC(=O)Cn2cc(S(=O)(=O)Cc3cccc(Cl)c3)c3ccccc32)cc1C,inactive: 5.22%
21,COc1ccc(-n2ncc(C(=O)Nc3ccc4c(c3)OCO4)c2C2CCN(C(=O)OC(C)(C)C)CC2)cc1,inactive: -29.1%
22,COc1ccc2oc(-c3ccc(C)c(NC(=O)c4ccc5c(c4)OCCO5)c3)nc2c1,inactive: 5.84%
